Our source for the relative growth values is the supplement of paper PMC9446081.

SMILES strings stand for the structures. The campaign covered roughly 39,000 compounds. About 220 (0.56%) showed activity. Some of the results follow.
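Note: static incubation at 37 °C against the wild-type strain, values averaged over two biological replicates.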

The assay relates to Escherichia coli K-12 BW25113. Put plainly: relative growth (OD600 normalised to plate interquartile mean) (fraction); higher = less growth inhibition, active = 0.2 or less. Conditions: 50 µM; LB; incubation time: overnight (16-24 h).
`COc1ccc(NC(=O)Nc2ccc3c(c2)C(=O)N([C@@H](C)CO)C[C@@H](C)[C@@H](CN(C)C(=O)Nc2c(C)noc2C)OCCCC[C@@H](C)O3)cc1`: the relative growth was inactive: 1.
In the case of `C[C@H]1CN([C@@H](C)CO)C(=O)c2cccc(NC(=O)C3CCOCC3)c2O[C@H]1CN(C)Cc1ccc(Oc2ccccc2)cc1`, the relative growth is inactive: 1.03.
Turning to `COc1c(C)cnc2c1c(=O)n(CC(N)=O)c(=O)n2C`, the relative growth was inactive: 0.999.
`C[C@@H]1CN([C@@H](C)CO)C(=O)c2cccc(NC(=O)Nc3ccc(F)cc3)c2O[C@@H]1CN(C)Cc1ccc(C(=O)Nc2ccccc2N)cc1`: the relative growth is inactive: 1.01.
In the case of `COc1ccc(NC(=O)Nc2ccc3c(c2)C(=O)N([C@@H](C)CO)C[C@@H](C)[C@@H](CN(C)C(=O)Nc2cccc4ccccc24)OCCCC[C@@H](C)O3)cc1` it was inactive: 1.05; in that of `C[C@H](CO)N1C[C@H](C)[C@H](CN(C)S(C)(=O)=O)Oc2c(NS(=O)(=O)c3ccc(F)cc3)cccc2C1=O`, inactive: 1.01.
In the case of `CNCc1cc2ccccc2s1`, the relative growth was inactive: 0.996.
In the case of `C[C@H]1CCCCO[C@H](CN(C)Cc2ccc(Cl)c(Cl)c2)[C@@H](C)CN([C@@H](C)CO)C(=O)c2cc(NC(=O)Nc3ccc4c(c3)OCO4)ccc2O1` it was inactive: 1.03; in that of `COC(=O)/C=C/c1ccc(C(=O)NCC(=O)N[C@@H](CCC(=O)OC)C(=O)N[C@@H](CC(C)C)C(N)=O)cc1`, inactive: 0.994; in that of `C[C@@H]1CCCCO[C@H](CN(C)S(=O)(=O)c2ccc(F)cc2)[C@@H](C)CN([C@H](C)CO)C(=O)c2cc(NC(=O)Nc3ccc(F)cc3)ccc2O1`, inactive: 0.933.
For `C[C@@H](NC(=O)N(C)C[C@H]1OCc2ccccc2-c2c(n(C)c3ccccc23)C(=O)N([C@@H](C)CO)C[C@@H]1C)c1ccccc1`, the relative growth is inactive: 1.02.
Consider `COc1ccc(S(=O)(=O)N(C)C[C@@H]2Oc3ncc(-c4ccccc4)cc3C(=O)N([C@H](C)CO)C[C@@H]2C)cc1`, for which the relative growth was inactive: 1.02.
As for `C[C@H](CO)N1C[C@H](C)[C@H](CN(C)C(=O)Nc2ccc(C(F)(F)F)cc2)OCCCC[C@H](C)Oc2ccc(NS(=O)(=O)c3ccccc3)cc2C1=O`, the relative growth is inactive: 1.03.
In the case of `CC(C)CC#Cc1ccc2c(c1)O[C@@H](CN(C)C(=O)C1CCOCC1)[C@H](C)CN([C@H](C)CO)S2(=O)=O` it was inactive: 0.986; in that of `COc1ccc(CN(C)C[C@@H]2Oc3ccc(NS(=O)(=O)c4cn(C)cn4)cc3CC(=O)N([C@@H](C)CO)C[C@H]2C)cc1`, inactive: 0.913; in that of `CC(=O)N1CCN(c2ccc(OCC3COC(Cn4ccnc4)(c4ccc(Cl)cc4Cl)O3)cc2)CC1` (centres undefined), inactive: 0.954.
Consider `CN(C)CCC=C1c2ccccc2CCc2ccccc21.Cl`, for which the relative growth was inactive: 0.976.
As for `O=C(C[C@@H]1CC[C@@H](NC(=O)Cc2ccccn2)[C@@H](CO)O1)NCCCN1CCOCC1`, the relative growth was inactive: 1.
For `CC1(N)CCN(c2cnc(-c3cccc(Cl)c3Cl)c(N)n2)CC1`, the relative growth was inactive: 0.986.
Take `COc1ccc(S(=O)(=O)Nc2ccc3c(c2)C(=O)N([C@@H](C)CO)C[C@H](C)[C@H](CN(C)S(=O)(=O)c2ccc(F)cc2)O3)cc1`: the relative growth was inactive: 1.
On to `COc1ccc(NC(=O)Nc2ccc3c(c2)C(=O)N([C@H](C)CO)C[C@H](C)[C@@H](CN(C)C(=O)Nc2ccc(F)cc2)OCCCC[C@@H](C)O3)cc1`, for which the relative growth was inactive: 1.
For `COc1cccc(C#Cc2ccc3c(c2)O[C@@H](CN(C)C(C)=O)[C@@H](C)CN([C@@H](C)CO)S3(=O)=O)c1`, the relative growth was inactive: 1.05.
Take `C[C@H](CO)N1C[C@H](C)[C@H](CN(C)Cc2ccc(Oc3ccccc3)cc2)Oc2ccc(NC(=O)CCCN(C)C)cc2C1=O`: the relative growth was inactive: 0.964.
For the compound `C[C@H](CO)N1C[C@H](C)[C@H](CN(C)Cc2ccncc2)Oc2ccc(NC(=O)CCN3CCOCC3)cc2CC1=O`, the relative growth is inactive: 0.961.
As to `O=c1ncccn1[C@@H]1O[C@H](CO)[C@@H](O)[C@H]1O`, the relative growth was inactive: 0.722.
In the case of `Cc1ccc(S(=O)(=O)N(C)C[C@@H]2Oc3ccc(NC(=O)Nc4cccc5ccccc45)cc3C(=O)N([C@H](C)CO)C[C@@H]2C)cc1` it was inactive: 1.02; in that of `Cc1cccc(NC(=O)Nc2ccc3c(c2)C(=O)N(C)[C@@H]2CC[C@H](CC(=O)NCc4ccccc4Cl)O[C@@H]2CO3)c1`, inactive: 1.03.
In the case of `O=C(O)C1=CCNCC1` it was inactive: 1.02.
Consider `C[C@H](CO)N1C[C@H](C)[C@@H](CN(C)Cc2ccncc2)Oc2ccc(NS(=O)(=O)c3ccc(F)cc3)cc2CC1=O`, for which the relative growth was inactive: 1.01.
As to `C[C@@H]1CN([C@@H](C)CO)C(=O)Cc2cc(NC(=O)Nc3ccccc3)ccc2O[C@H]1CN(C)Cc1ccc(-c2ccccc2)cc1`, the relative growth was inactive: 0.998.
In the case of `C[C@H](CO)N1C[C@H](C)[C@@H](CN(C)C(=O)c2ccccc2)OCCCC[C@H](C)Oc2ccc(NC(=O)Cc3ccccc3)cc2C1=O` it was inactive: 1.02; in that of `CC(C)NC(=O)N[C@H]1C=C[C@H](CC(=O)NCCN2CCCC2)O[C@H]1CO`, inactive: 0.998; in that of `C[C@@H]1CCCCO[C@H](CN(C)S(=O)(=O)c2ccc(Cl)cc2)[C@@H](C)CN([C@@H](C)CO)C(=O)c2cc(NS(=O)(=O)c3ccc(Cl)cc3)ccc2O1`, inactive: 1.01.
Consider `C[C@@H]1CN([C@H](C)CO)C(=O)c2cc(NC(=O)Nc3cccc4ccccc34)ccc2O[C@@H]1CN(C)S(=O)(=O)c1ccc(F)cc1`, for which the relative growth is inactive: 1.02.
Turning to `C[C@H](CO)N1C[C@H](C)[C@H](CN(C)C(=O)CN(C)C)Oc2cc(C#Cc3ccc(F)cc3)ccc2S1(=O)=O`, the relative growth was inactive: 0.971.
As for `CC(C)NC(=O)N(C)C[C@H]1Oc2ccc(NS(=O)(=O)c3ccc(Cl)cc3)cc2CC(=O)N([C@H](C)CO)C[C@H]1C`, the relative growth was inactive: 0.988.
In the case of `CC[C@H]1OC(=O)[C@H](C)[C@@H](O[C@H]2C[C@@](C)(OC)[C@@H](O)[C@H](C)O2)[C@H](C)[C@@H](O[C@@H]2O[C@H](C)C[C@H](N(C)C)[C@H]2O)[C@](C)(OC)C[C@@H](C)C(=O)[C@H](C)[C@@H](O)[C@]1(C)O` it was active: 0.0351; in that of `C[C@@H]1CCCCO[C@@H](CN(C)Cc2ccc(C(F)(F)F)cc2)[C@H](C)CN([C@H](C)CO)C(=O)c2cc(NC(=O)Nc3ccccc3)ccc2O1`, inactive: 0.998.
As for `O=C(Oc1ccc(Cl)cc1)c1sc2ccccc2c1Cl`, the relative growth was inactive: 1.05.
Consider `COc1ccc(NC(=O)N(C)C[C@@H]2OCCCC[C@@H](C)Oc3ccc(NC(=O)Nc4ccc5c(c4)OCO5)cc3C(=O)N([C@H](C)CO)C[C@@H]2C)cc1`, for which the relative growth was inactive: 1.03.
In the case of `COc1ccc(NC(=O)Nc2ccc3c(c2)C(=O)N([C@H](C)CO)C[C@@H](C)[C@H](CN(C)C(=O)NC2CCCCC2)OCCCC[C@@H](C)O3)cc1` it was inactive: 1; in that of `CCCOc1ccc(S(=O)(=O)NCC[C@@H]2CCCN2C)cc1-c1nc2c(CCC)nn(C)c2c(=O)[nH]1`, inactive: 0.987.
As to `C[C@H](CO)N1C[C@H](C)[C@@H](CN(C)C(=O)Nc2ccc(F)cc2)OCCCC[C@H](C)Oc2ccc(NS(=O)(=O)c3ccccc3)cc2C1=O`, the relative growth was inactive: 1.01.
For the compound `C[C@H](CO)N1C[C@H](C)[C@@H](CN(C)S(=O)(=O)c2cccs2)Oc2c(NS(=O)(=O)c3cn(C)cn3)cccc2C1=O`, the relative growth was inactive: 1.02.
`COCCNC(=O)C[C@H]1C[C@H]2c3cc(NC(=O)Nc4ccc(C(F)(F)F)cc4)ccc3O[C@H]2[C@H](CO)O1`: the relative growth is inactive: 0.971.
Take `CN(C)CCCNC(=O)[C@@H]1[C@@H](CO)[C@@H]2Cn3c(ccc(-c4cccc(C(=O)N(C)C)c4)c3=O)[C@H]1N2`: the relative growth was inactive: 0.953.
In the case of `O=C(C[C@H]1CC[C@@H]2NC[C@@H](O)COC[C@H]2O1)NCCN1CCCCC1` it was inactive: 0.992.
Consider `COc1ccc(NC(=O)N(C)C[C@H]2OCc3ccccc3-c3c(n(C)c4ccccc34)C(=O)N([C@@H](C)CO)C[C@@H]2C)c(OC)c1`, for which the relative growth was inactive: 0.982.
In the case of `C[C@H](CO)N1C[C@H](C)[C@@H](CN(C)C(=O)Nc2cccc(Oc3ccccn3)c2)OCc2cn(nn2)CCCC1=O`, the relative growth is inactive: 1.04.
Regarding `C[C@@H]1CN([C@H](C)CO)C(=O)c2cccc(NC(=O)C3CC3)c2O[C@H]1CN(C)C(=O)Nc1ccc2c(c1)OCO2`, the relative growth was inactive: 1.
As to `COc1ccccc1CN1C(=O)c2ccccc2[C@@]2(Cc3ccccc3N(C3CC3)C2=O)[C@@H]1c1ccc(CO)cc1`, the relative growth is inactive: 1.01.
As to `C[C@H]1CCCCO[C@@H](CN(C)Cc2ccncc2)[C@@H](C)CN([C@@H](C)CO)C(=O)c2cc(NS(=O)(=O)c3ccc(Cl)cc3)ccc2O1`, the relative growth was inactive: 1.
In the case of `COc1ccc(C#Cc2ccc3c(c2)[C@]2(C(=O)N3)[C@H](c3ccc(O)cc3)N3[C@H](c4ccccc4)[C@H](c4ccccc4)OC(=O)[C@H]3[C@@H]2C(=O)N2CCCCCCC2)cc1` it was inactive: 1.02.
Take `COc1cc(C=O)ccc1O`: the relative growth was inactive: 0.982.
As for `C[C@H]1CCCCO[C@@H](CN(C)C(=O)Nc2ccc(C(F)(F)F)cc2)[C@@H](C)CN([C@@H](C)CO)C(=O)c2cc(NC(=O)Cc3ccccc3)ccc2O1`, the relative growth is inactive: 1.04.
With `C[C@H](CO)N1C[C@H](C)[C@@H](CN(C)Cc2ccc(C(=O)Nc3ccccc3N)cc2)Oc2ccc(NC(=O)Cc3cn(C)c4ccccc34)cc2C1=O`, the relative growth is inactive: 0.982.
Turning to `CCCCCC/C=C/C=C\CCCCCCCC(=O)O`, the relative growth is inactive: 1.02.
Turning to `Cc1cc(C)c(N(Cc2ccccc2)S(=O)(=O)c2ccc(OCCNC(=O)c3cc4ccccc4o3)cc2)c(C(=O)NO)c1`, the relative growth is inactive: 0.998.
In the case of `CN(C)CC(=O)N1[C@@H]2Cn3c(ccc(-c4ccccc4)c3=O)[C@H]1[C@@H](C(=O)N1CCN(C)CC1)[C@@H]2CO` it was inactive: 0.984.
